In paper PMC4336329 (PLoS ONE, 2015):
Screen size: about 310,000 compounds; about 2,200 (0.71%) showed an effect of 50% or more. The effect is printed as a negative number. Some of the results follow.

What follows are compounds tested against human ether-à-go-go-related gene (hERG) potassium channel (human, UniProt Q12809) (assay: primary screen, population patch clamp on CHO cells stably expressing hERG).
Sequence of human ether-à-go-go-related gene (hERG) potassium channel (Q12809 whole entry, looked up): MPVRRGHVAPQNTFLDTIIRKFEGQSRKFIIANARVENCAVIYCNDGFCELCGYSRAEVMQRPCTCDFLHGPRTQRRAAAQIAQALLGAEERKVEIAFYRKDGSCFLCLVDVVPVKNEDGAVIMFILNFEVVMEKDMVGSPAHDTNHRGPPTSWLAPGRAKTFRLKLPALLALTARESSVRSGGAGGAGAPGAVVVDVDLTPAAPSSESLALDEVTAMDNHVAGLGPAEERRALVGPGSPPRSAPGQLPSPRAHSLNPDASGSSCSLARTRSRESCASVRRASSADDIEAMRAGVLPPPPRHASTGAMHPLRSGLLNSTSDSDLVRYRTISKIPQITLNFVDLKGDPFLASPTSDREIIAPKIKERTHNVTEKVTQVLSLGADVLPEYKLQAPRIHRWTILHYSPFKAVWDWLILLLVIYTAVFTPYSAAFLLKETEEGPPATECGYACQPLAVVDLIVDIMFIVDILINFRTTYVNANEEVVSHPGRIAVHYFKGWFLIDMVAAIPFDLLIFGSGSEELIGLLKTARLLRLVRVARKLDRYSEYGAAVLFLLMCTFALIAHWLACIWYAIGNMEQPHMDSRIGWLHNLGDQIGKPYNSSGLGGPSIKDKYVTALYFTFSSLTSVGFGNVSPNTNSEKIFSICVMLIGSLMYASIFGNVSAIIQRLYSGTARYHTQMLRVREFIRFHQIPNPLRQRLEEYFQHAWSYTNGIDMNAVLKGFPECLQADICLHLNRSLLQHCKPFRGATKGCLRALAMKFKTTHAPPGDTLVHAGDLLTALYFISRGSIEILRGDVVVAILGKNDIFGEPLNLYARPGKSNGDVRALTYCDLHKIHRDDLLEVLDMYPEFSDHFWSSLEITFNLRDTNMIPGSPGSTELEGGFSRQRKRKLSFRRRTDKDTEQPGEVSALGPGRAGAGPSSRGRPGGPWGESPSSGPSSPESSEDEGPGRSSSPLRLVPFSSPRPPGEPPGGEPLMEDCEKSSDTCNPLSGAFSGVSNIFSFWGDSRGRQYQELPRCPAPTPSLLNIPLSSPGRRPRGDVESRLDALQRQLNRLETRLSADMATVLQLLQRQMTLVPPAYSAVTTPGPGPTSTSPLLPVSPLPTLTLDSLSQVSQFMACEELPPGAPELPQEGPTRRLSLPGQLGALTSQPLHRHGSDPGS

Row | SMILES | hERG current change (%, negative = inhibition) at 1uM
1 | CCOC(=O)C1=C(N)Oc2c(oc(CO)cc2=O)C1c1c(F)cccc1Cl (centres unmarked) | 7.71%
2 | Cc1nc(C)c(C(=O)OCC(=O)NCCc2ccc(S(N)(=O)=O)cc2)s1 | 4.91%
3 | O=C(N=C1SC2CS(=O)(=O)CC2N1c1ccc(Br)cc1F)C1CC1 (centres unmarked) | 14.6%
4 | CC(=O)c1c(O)c(C)c(-c2ccccc2)n(-c2ccccc2)c1=O | 1.34%
5 | CC(C)Nc1nc(NC(C)C)nc(Nn2cnnc2)n1 | 9.94%
6 | O=C(N=C1SC2CS(=O)(=O)CC2N1c1ccc(Br)cc1Cl)C1CC1 (centres unmarked) | 12.6%
7 | O=C(O)c1ccc(CSc2nnc(-c3ccncc3)n2-c2ccc(Br)cc2)cc1 | 2.92%
8 | CCCCn1c(N)c(N(CC(C)C)C(=O)c2cccc(S(=O)(=O)N3CCCCC3)c2)c(=O)[nH]c1=O | 18%
9 | CCN1CCN(CCCNC(=O)c2csc3c2CCCCC3)CC1 | 6.49%
10 | Cc1onc(-c2c(F)cccc2Cl)c1C(O)c1ccc(F)cc1 (centres unmarked) | 13.3%
11 | O=C(C1CCCC1)N(c1ccccc1)C1C=CS(=O)(=O)C1 (centres unmarked) | 9.75%
12 | COc1ccc(-n2nc3c(c2NC(=O)c2ccc(N4C(=O)CCC4=O)cc2)CSC3)cc1 | 18%
13 | O=C(CSc1nnnn1-c1ccccc1)N1CCN(C(=O)c2ccco2)CC1 | -22%
14 | Cc1nc(NCCC(C)C)c2nnn(Cc3ccccc3)c2n1 | 11.3%
15 | CC(C)(C)C(=O)NC1CCN(S(=O)(=O)c2ccccc2F)CC1 | 7.45%
16 | CCCCOC(=O)C1=C(C)NC(=O)NC1c1ccc([N+](=O)[O-])s1 (centres unmarked) | 13.4%
17 | COc1cc2c(=O)n(CCC(=O)NCC3CCCO3)c(=O)n(CC(=O)Nc3ccc(C)cc3)c2cc1OC (centres unmarked) | 11.9%
18 | O=S(=O)(c1ccc(Br)cc1)N1CCOC12CCCCC2 | 7.53%
19 | CCC(Oc1ccc(C)c(C)c1)C(=O)N1CCCN(C)CC1 (centres unmarked) | 9.05%
20 | O=C1CC2(CON=C2c2ccc(F)cc2)C(=O)N1c1ccc(F)cc1 (centres unmarked) | 10.4%
21 | O=S(=O)(Nc1cccc(-c2cn3ccsc3n2)c1)c1ccc(F)cc1 | 13%
22 | CCCC(=O)NC(c1ccco1)c1c(O)ccc2ccccc12 (centres unmarked) | 5.88%
23 | COC(=O)C(Cc1c[nH]c2ccccc12)NC(C)=O (centres unmarked) | 9.43%

Row | SMILES | hERG current change (%, negative = inhibition) at 1uM
24 | COc1cc(/C=C(\C#N)C(=O)Nc2cccc(C(=O)O)c2)ccc1OCc1ccc(C)cc1 | 9.81%
25 | Cc1ccc(C2SCC(=O)Nc3c2c(=O)[nH]n3C2CCOC(C)(C)C2)cc1 (centres unmarked) | 8.07%
26 | CCOC(=O)c1c(C)[nH]c(C(=O)OCC(=O)NCc2ccc(OC)c(OC)c2)c1C | 6.57%
27 | N#CCCn1cc(C(=O)Nc2ccccc2Br)c(-c2ccc3c(c2)OCCO3)n1 | 10.7%
28 | COc1ccc(N(CC(=O)NCC2CCCO2)C(=O)CCC(=O)Nc2nccs2)cc1 (centres unmarked) | 14.4%
29 | O=C(C1=C[C@H](c2coc3ccccc3c2=O)C[C@H](OCc2ccc(CO)cc2)O1)N1CCN(Cc2ccccc2)CC1 | 0.974%
30 | O=C(CSc1nnc(-c2ccccc2F)n1C1CC1)NC(=O)c1cccc([N+](=O)[O-])c1 | -19.4%
31 | CC(=O)c1cn(CC(=O)NCC2CCCO2)c2ccccc12 (centres unmarked) | 10.5%
32 | CN1C(=O)CC(N2CCN(Cc3ccc(Cl)cc3)CC2)C1=O (centres unmarked) | 11.1%
33 | c1csc(-c2cn3c(n2)SCC3)c1 | -4.97%
34 | O=C(CN1C(=O)c2ccccc2S1(=O)=O)NC1CC2CCC1C2 (centres unmarked) | 5.62%
35 | Cc1cc(N=Cc2c(O)n(-c3ccc4c(c3)OCO4)c(=O)c3ccccc23)ccn1 | 7.15%
36 | COC(=O)c1ccc(CSc2nnc(NC(C)C)s2)o1 | 23%
37 | CN(C)C(=O)CSc1nnc(Cc2ccc3c(c2)OCO3)o1 | 12.8%
38 | COc1ccc(Br)cc1C(=O)Nc1ccc(Cc2ccncc2)cc1 | -0.358%
39 | CCCCn1c(N)c(N(CC(C)C)C(=O)c2ccc(C)c(S(=O)(=O)N3CCCCC3)c2)c(=O)[nH]c1=O | -9.25%
40 | CCP(=O)(c1ccccc1)C(C)(C)O (centres unmarked) | 15.3%
41 | CCOC(=O)Cn1nc(C)n(-c2ccc(F)cc2)c1=O | 4.73%
42 | O=c1[nH]c(/C=C/c2ccc3c(c2)OCO3)c([N+](=O)[O-])c(=O)[nH]1 | 7.58%
43 | CCCCOc1ccc(N(CC(=O)NCC2CCCO2)C(=O)CCC(=O)Nc2cc(C)ccn2)cc1 (centres unmarked) | 7.17%
44 | Cc1cc(C)cc(CC2CC(=O)N(c3nc(C)cc(C)n3)C2=O)c1 (centres unmarked) | -5.23%
45 | O=C(CCNS(=O)(=O)c1ccc(Cl)cc1)N1CCN(Cc2ccccc2)CC1 | -16.1%
46 | CCn1ncc(Br)c1C(=O)Nc1nccs1 | -3.91%

Row | SMILES | hERG current change (%, negative = inhibition) at 1uM
47 | Cc1ccnc(NC(=O)CC(c2ccccc2)c2ccccc2)n1 | 6.14%
48 | Cc1ccc(NS(=O)(=O)c2ccc(NC(=O)C3CCCO3)cc2)cc1 (centres unmarked) | 12.2%
49 | CCN(CC)CCCN1C(=O)C(O)=C(C(=O)c2cc3ccccc3o2)C1c1ccccn1 (centres unmarked) | 11.7%
50 | COc1cccc(C(=O)OCC(=O)c2[nH]c(C)c(C(C)=O)c2C)c1 | 2.96%
51 | COc1ccc(/C=N/n2c(C3CCCCC3)n[nH]c2=S)c(OC)c1 | 14.1%
52 | FC(F)(F)c1ccc2c(c1)NCC1CCCN21 (centres unmarked) | 22.6%
53 | CCCOC(=O)Nc1cc(OC)ccc1[N+](=O)[O-] | 16.1%
54 | C/C(CC(O)(/C=N/O)c1ccccc1)=N\O (centres unmarked) | 14.1%
55 | CCN(CC)S(=O)(=O)c1ccc(C(=O)OCC(=O)NC2CCCC2)cc1 | 20.2%
56 | O=C(c1ccccc1S(=O)(=O)NCc1ccccc1)N1CCCC1 | 2.93%
57 | O=C(c1ccccc1)N1N=C(c2ccccc2)CC1c1ccccc1[N+](=O)[O-] (centres unmarked) | 9.03%
58 | C=CCOc1ccc(C2NC(=S)NC(c3ccccc3)=C2C(C)=O)cc1OC (centres unmarked) | -1.18%
59 | COc1ccccc1C(=O)OCC(=O)NC(=O)NC1CCCC1 | 8.02%
60 | CN(CC(=O)Nc1ccc(F)c(F)c1F)C(=O)/C=C/c1ccc(Cl)cc1 | 3.46%
61 | COC(=O)Cn1c(=NC(=O)c2ccc([N+](=O)[O-])s2)sc2cc(Br)ccc21 | 14%
62 | COc1cccc(CNS(=O)(=O)c2c(C(=O)N3CCCC3)c(C)n(C)c2C)c1 | 13.5%
63 | COc1cc(C=C(c2nc3ccccc3s2)c2nc3ccccc3s2)cc(OC)c1O | 2.07%
64 | Cc1nn(C(C)C(=O)O)c(C)c1[N+](=O)[O-] (centres unmarked) | 13.9%
65 | O=C(Nc1cccc(Cl)c1)O/N=C\c1ccncc1 | 0.219%
66 | CCCCN(CC)CCNC(=O)C1CCN(S(=O)(=O)c2cccc3nsnc23)CC1 | 1.54%
67 | COC(=O)c1cnc(SC)nc1C | -3.4%
68 | C=CCNC(=O)[C@@H]1CSC2c3ccc(OC)c(OC)c3C(=O)N21 (some centres unmarked) | 15%
69 | C/C=C/C(=O)Nc1cccc(C2=NOC3(C2)C[C@H](C(N)=O)N(C(=O)/C=C/C)C3)c1 (some centres unmarked) | 7.97%

Row | SMILES | hERG current change (%, negative = inhibition) at 1uM
70 | CCOC(=O)CSC1=Nc2ccccc2C2=NC(CC(=O)NCc3ccc4c(c3)OCO4)C(=O)N12 (centres unmarked) | -4.24%
71 | O=C(Nc1ccncc1)c1cc(S(=O)(=O)N2CCN(c3ccccc3)CC2)ccc1Cl | -18.3%
72 | CCOC(=O)c1cc(C(C)(C)C)oc1CN | 14%
73 | C=C(C)CNC(=S)N/N=C/c1c(F)cccc1F | 4.81%
74 | O=C(O)CCC(=O)Nc1ccc(-n2ccc(C(F)(F)F)n2)cc1 | 15.4%
75 | CC(=O)c1ccc(NC(=O)C(C)OC(=O)CCN=C2NS(=O)(=O)c3ccccc32)cc1 (centres unmarked) | 10.4%
76 | O=C(CSc1nnc(Cc2cccs2)n1-c1ccccc1)NC1CCCCC1 | -13.5%
77 | O=C(NCCCN1CCOCC1)c1ccco1 | 13.8%
78 | Cc1ccc(NC2CCCN(C(=O)CCc3ccncc3)C2)cc1C (centres unmarked) | -3.54%
79 | Cc1nc(C)c(Cc2ccccc2Cl)c(=O)[nH]1 | 12%
80 | CCOC(=O)c1cnc(-n2nc(C)cc2C)nc1NNc1nc(-c2ccccc2)cc(-c2ccccc2)n1 | -1.53%
81 | CC(C)c1ccc(/C=N/n2c(-c3ccccc3)n[nH]c2=S)cc1 | 12.4%
82 | CC(C)N(CCO)C(=O)CCc1nnc(CCCc2ccccc2)o1 | 13.6%
83 | COc1ccccc1OCCCOc1c(C)cc(C)cc1Br | 2.14%
84 | C#CNC(=O)C1(CC=C)CCNCC1 | 8.61%
85 | COc1cc(/C=N/NC2=NS(=O)(=O)c3ccccc32)ccc1OC(C)=O | 12.6%
86 | CCC(C(=O)NC1CCCCC1)N(Cc1cccs1)C(=O)CCC(=O)Nc1cc(C)on1 (centres unmarked) | 8.63%
87 | COc1ccc(C(=O)CC(=O)C(=O)Nc2cc(OC)c(OC)c(OC)c2)cc1 | 3.79%
88 | O=C(CSc1nc2ccccc2c(=O)[nH]1)Nc1ccccc1N1CCOCC1 | 8.7%
89 | CCOC(=O)c1ccc2c(c1)N(CC(=O)N1CCCCC1)C(=O)C(C)(C)O2 | 3.29%
